According to article PMC4336329 (PLoS ONE, 2015):
Hit rate of the full screen: of about 310,000 compounds, about 14,000 (4.5%) showed an effect of 50% or more. The effect is printed as a negative number. The list shows a part of the results.

What follows are molecules tested against human ether-à-go-go-related gene (hERG) potassium channel (human, UniProt Q12809) (assay: primary screen, population patch clamp on CHO cells stably expressing hERG).
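Further: peak tail current of the secondary pulse compared with the same well before compound.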

Chain of human ether-à-go-go-related gene (hERG) potassium channel (Q12809 whole entry, looked up): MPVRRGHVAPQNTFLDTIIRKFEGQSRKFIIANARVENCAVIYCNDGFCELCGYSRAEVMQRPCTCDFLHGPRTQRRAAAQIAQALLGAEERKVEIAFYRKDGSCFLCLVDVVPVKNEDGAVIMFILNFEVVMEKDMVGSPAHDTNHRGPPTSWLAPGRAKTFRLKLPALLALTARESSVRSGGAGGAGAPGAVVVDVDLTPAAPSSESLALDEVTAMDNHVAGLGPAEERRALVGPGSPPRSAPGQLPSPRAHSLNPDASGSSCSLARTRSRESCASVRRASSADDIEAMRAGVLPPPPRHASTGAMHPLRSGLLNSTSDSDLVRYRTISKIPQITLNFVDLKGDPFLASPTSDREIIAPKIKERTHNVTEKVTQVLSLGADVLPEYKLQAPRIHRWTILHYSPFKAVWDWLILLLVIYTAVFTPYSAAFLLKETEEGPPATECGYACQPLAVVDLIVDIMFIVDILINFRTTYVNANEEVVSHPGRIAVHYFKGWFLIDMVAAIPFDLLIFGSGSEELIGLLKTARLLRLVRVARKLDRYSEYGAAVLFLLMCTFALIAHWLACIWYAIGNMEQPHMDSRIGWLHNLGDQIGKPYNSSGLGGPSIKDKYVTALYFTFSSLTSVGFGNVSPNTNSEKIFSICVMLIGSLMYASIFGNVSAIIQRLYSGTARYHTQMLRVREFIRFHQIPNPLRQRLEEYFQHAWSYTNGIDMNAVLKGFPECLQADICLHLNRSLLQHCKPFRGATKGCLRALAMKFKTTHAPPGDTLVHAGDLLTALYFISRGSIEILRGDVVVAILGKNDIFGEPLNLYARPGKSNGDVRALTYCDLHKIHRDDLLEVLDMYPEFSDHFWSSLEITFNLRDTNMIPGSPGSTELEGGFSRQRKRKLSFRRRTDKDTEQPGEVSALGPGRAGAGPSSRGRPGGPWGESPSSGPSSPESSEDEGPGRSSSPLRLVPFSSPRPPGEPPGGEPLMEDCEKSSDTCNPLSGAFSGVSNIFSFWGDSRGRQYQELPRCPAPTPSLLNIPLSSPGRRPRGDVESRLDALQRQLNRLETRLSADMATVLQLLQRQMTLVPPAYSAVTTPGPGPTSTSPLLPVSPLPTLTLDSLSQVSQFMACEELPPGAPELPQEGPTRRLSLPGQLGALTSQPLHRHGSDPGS

SMILES	hERG current change (%, negative = inhibition) at 10uM [%]
Cc1oc(C(C)(C)C)cc1C(=O)N1CCCC1C(=O)O (stereo not drawn)	2.92
COc1cccc(CN(C)CC(=O)NCc2ccc(C)cc2)c1.O=C(O)C(=O)O	-49.3
O=C1CCN(S(=O)(=O)c2ccccc2)CCN1CCOCc1ccc(F)cc1	-5.6
O=C(O)c1ccc(Cn2cnc3cccnc32)cc1	21.2
O=c1cc(-c2ccc(O)cc2)oc2ccccc12	16.1
O=C(Nc1ccc(Br)cc1)C1CCCN1S(=O)(=O)c1cccs1 (stereo not drawn)	-20.8
CN(Cc1ccccc1)C(=O)c1nc[nH]c1C(=O)N1CCc2ccccc2C1	16.4
CCSC1=N/C(=C\c2ccc(C)s2)C(=O)S1	2.69
CCOC(=O)C1CCCN(S(=O)(=O)Cc2ccccc2)C1 (stereo not drawn)	3.31
CC(NCc1ccc2c(c1)OCO2)C(=O)N1CCc2ccccc21 (stereo not drawn)	-17.2
Cc1cccc(NC(=O)c2ccc(S(=O)(=O)N3CCCCCC3)cc2)n1	-4.07
Oc1oc(-c2ccccc2)nc1C=Nc1cccc2ccccc12	-12.5
CCOC(=O)[C@H]1[C@H]2COc3ccccc3[C@@H]2N2C(=O)c3cc(Br)ccc3NC(=O)[C@@]12C	-11
COc1ccc(CCCC(=O)NC2CCCCC2C)c(C)c1 (stereo not drawn)	-3.66
CCCC(=O)Nc1ccccc1NC(=O)CCC	15.5
c1ccc(-n2nnnc2Cc2nnnn2-c2ccccc2)cc1	50.3
CN(C(=O)CCc1ccccc1F)C1CCCN(Cc2ccccc2F)C1 (stereo not drawn)	-0.872
O=C(O)CN1CCN(Cc2ccc(F)cc2)C1=O	18.5
CCCCC(=O)N/N=C(\C)CC(=O)Nc1ccccc1Br	0.0257
O=C(c1cccnc1)N1CCC(Oc2ccc(C(=O)N3CCCC(O)C3)cc2)CC1 (stereo not drawn)	-0.912
CCOC(=O)CC1=NN(c2ccccc2)C(=O)/C1=C\c1ccc(OC)cc1OC	6.49
Cc1ccc(CSCC(=O)NCc2ccco2)cc1	-23.7
CC(C)(C)NC(=O)C1Cc2ccccc2CN1C(=O)Nc1cccc(Cl)c1 (stereo not drawn)	-4.36

SMILES	hERG current change (%, negative = inhibition) at 10uM [%]
O=S(=O)(N/N=C1/CCCc2ccccc21)c1ccc(Br)cc1	-9.33
COc1ccc(CCN2C(=O)CN(Cc3ccccc3)CC2=O)cc1OC	-14.4
Cc1ccc(C)c(OCCn2ccnc2)c1	8.02
NS(=O)(=O)c1ccc(CNC(=S)NC2CCCC2)cc1	4.12
COC(=O)c1cccc(Oc2cccc(Cl)n2)c1	14.7
COC(=O)c1ccc(CSc2nc3ccccc3c(=O)n2Cc2ccco2)o1	-17.6
CCc1ccc(C(=O)CSc2nnc(C)c(=O)[nH]2)cc1	-1.23
Cc1cccc(OCC(=O)N/N=C/c2ccccc2C(=O)O)c1	1.76
Nc1nnc2c(C(F)(F)F)nc3ccccc3n12	11.8
CCC(=O)N1CC(C)C(=O)Nc2ccccc21 (stereo not drawn)	16.1
Cc1nnc(SCC(=O)NCc2ccco2)n1-c1ccc(F)cc1	0.711
Cc1ccc(-n2c(=O)c3ccccc3n(CC(=O)C(C)(C)C)c2=O)cc1	8.51
CCOc1ccc(S(=O)(=O)N2CCC(C(=O)NCCc3ccc(OC)c(OC)c3)CC2)cc1	-13.6
COc1ccc(N2CCN(C(=O)c3ccc(N(C)S(=O)(=O)c4ccc(OC)cc4)cc3)CC2)cc1	-32.1
CCC(=O)N1CCc2cc(S(=O)(=O)NC(C(=O)Nc3cccc(C)n3)C(C)C)ccc21 (stereo not drawn)	14.8
Cc1c(C(c2ccccc2Br)c2c(C)n(C)n(-c3ccccc3)c2=O)c(=O)n(-c2ccccc2)n1C	3.71
COc1ccc(NC(=O)CCN2C(=O)NC3(CCCC3)C2=O)cc1Cl	-6.47
COC(=O)[C@H]1[C@H](C(=O)OC)[C@@H](C(=O)OC)N(c2ccc(OC)cc2)[C@@H]1C(=O)OC	26.9
COc1ccc(CCNc2nc(N3CCCCC3)nc(N3CCCCC3)n2)cc1OC	-2.41
COc1ccccc1-c1nc2n(n1)C(c1ccc(Cl)cc1)C(C(N)=O)=C(C)N2 (stereo not drawn)	-2.25
Cc1[nH]nc2c1C(c1ccc3c(c1)OCO3)C(C#N)=C(N)O2 (stereo not drawn)	-5.89
CC(C)(C)NC(=S)NNC(=O)c1ccccc1Cl	7.54
CCS(=O)(=O)N1CCCC(C(=O)NCCCN(C)Cc2ccccc2)C1 (stereo not drawn)	-2.93

SMILES	hERG current change (%, negative = inhibition) at 10uM [%]
O=C(O)C1CCCCC1C(=O)NCCc1ccncc1 (stereo not drawn)	1.96
CCOC(=O)CC(=O)CSc1nc2c(C)c(C)ccc2cc1C	-3
CCOC(=O)NN1C(=O)c2ccccc2NC1c1cccc(O)c1 (stereo not drawn)	-7.01
Cc1c(NC(=O)C(C)Sc2nc3ccccc3c(=O)n2CCO)c(=O)n(-c2ccccc2)n1C (stereo not drawn)	2.19
COc1cc(C2C(C#N)=C(N)OC3=C2C(=O)CC(C)(C)C3)cc2c1OCO2 (stereo not drawn)	-36.1
COc1ccccc1N1CCN(C(=O)c2cc3sccc3n2C)CC1	-9.8
Cc1cc(C(=O)NC2CCCCCCC2)ccc1[N+](=O)[O-]	5.69
Cc1cc2oc(=O)cc(CN3CCN(S(=O)(=O)c4ccc5c(c4)OCCO5)CC3)c2cc1C	-6.07
O=C(NCC(c1ccco1)N1CCN(c2ccc(F)cc2)CC1)C(=O)NC1CCCCC1 (stereo not drawn)	4.73
O=C(NCc1ccccc1F)C1CCCN(S(=O)(=O)N2CCOCC2)C1 (stereo not drawn)	15.9
COc1ccc(/C=C/C(=O)NC(=S)NNC(=O)Cc2cccs2)cc1	-4.1
CCOc1ccccc1NC(=O)C1=C(C)NC(=O)NC1c1cccs1 (stereo not drawn)	-2.75
CCC(C#CCN1CCCCC1)(CC)OCCC#N	2.57
Cc1cc(C)n2nc(C(=O)OCC(=O)N(CC(C)C)CC(C)C)nc2n1	15.6
Cn1c2c(c(=O)n1-c1ccccc1)CSCC2	16.5
CC(=O)c1ccc(NCC(=O)N2CCN(c3ccccc3)CC2)cc1	-8.44
Cc1ccc(S(=O)(=O)N2CCC(C)CC2)cc1	-4.14
Cc1nn(-c2ccccc2)c(C)c1NC(=O)COC(=O)c1ccccc1	5.7
CCOC(=O)c1ccccc1NS(=O)(=O)c1c(C)nc2sccn2c1=O	-13
CCC1(C)Cc2c(sc3nc4n(c(=O)c23)CCS4)CO1 (stereo not drawn)	-9.38
COc1cccc(NC(=O)COc2cccc3c2CCNC3=O)c1	-10.7
O=C1CN=C(c2ccccc2F)c2cc(Cl)ccc2N1	-8.19
O=C(NC1CCCCC1)NC1CCN(S(=O)(=O)Cc2ccccc2)CC1	-0.483

SMILES	hERG current change (%, negative = inhibition) at 10uM [%]
OCCNC(=S)NCCc1ccccc1	13.4
COc1ccc(OC)c(N(CC(=O)N2CCCC2)S(=O)(=O)c2ccccc2)c1	14.9
CNC(=S)N/N=C/c1cn(Cc2c(F)cccc2Cl)c2ccccc12	6.2
COc1ccc2c(c1)c1nc3ccccc3nc1n2Cc1ccc(OC(C)C)c(OC)c1	-0.905
CCc1ccc(OCC(=O)Nc2ccc(-c3cc4ccccc4oc3=O)c(OC)c2)cc1	1.91
CC(C)c1ccc(/C=C/C(=O)N2CCc3ccccc3C2)cc1	3.46
COc1cccc(OC)c1C(=O)OCC(=O)N(c1ccccc1)C1CCCCC1	-4.4
CCOC(=O)N1CCN(C(=O)c2ccc3c(=O)n(CCOC)c(=O)[nH]c3c2)CC1	25.8
Nc1nnc(SCC(=O)N2CCN(Cc3ccccc3)CC2)s1	4.16
COc1ccccc1CC(=O)NCC(c1ccco1)N1CCCCC1 (stereo not drawn)	8.83
CCc1c(O)c(-c2ccccc2)c(=O)n(-c2ccccn2)c1-c1ccccc1	9.7
CC1CC(C)CN(C(=O)c2ccc(CSc3nc4ccncc4[nH]3)cc2)C1 (stereo not drawn)	-8.69
Fc1ccccc1/C=N/NC(=S)Nc1ccc(Cl)cc1Cl	8.62
Cl.N=C(N)Sc1nc(N2CCCCC2)nc(N2CCCCC2)n1	16.7
CC(Oc1cccc(Cl)c1)C(=O)Nc1ccc([N+](=O)[O-])cn1 (stereo not drawn)	-62.2
NC(=O)C1CCN(CC(O)COCc2ccccc2Cl)CC1 (stereo not drawn)	18.8
COc1cc(C(=O)OCC(=O)Nc2nnc(-c3ccccc3)o2)cc(OC)c1OC	2.63
CCOc1cc(S(=O)(=O)NCc2ccco2)c(OCC)cc1-n1cnnn1	-10.8
Cc1nn(C(C)C(=O)NCc2cccs2)c(C)c1[N+](=O)[O-] (stereo not drawn)	6.95
CN(C)S(=O)(=O)c1ccc(NC(=O)CN2C(=O)NC3(CCCC3)C2=O)cc1	8.41
CC1=C(C)Cc2c(OC(=O)c3ccccc3)ccc(OC(=O)c3ccccc3)c2C1	12.9
